# According to ChEMBL document CHEMBL5308541, “MAIP: An Open-Source Tool to Enrich High-Throughput Screening Output and Identify Novel, Druglike Molecules with Antimalarial Activity” (ACS Med Chem Lett, 2023):
# Screen size: about 150,000 compounds; about 540 (0.36%) showed an effect of 50% or more. The list shows a part of the results.
# Test system: Plasmodium falciparum
# Assay: Primary screen in NF54 nanoGlo assay, in single point, at 2uM, 72h; a lower Z score goes with more inhibition
# Assay type: functional, Erythrocyte
# Settings: timepoint 72 hour
SMILES,% Inhibition [%],Z score
O=C(CCC(F)(F)F)N1C2CCC1CC(n1cc(Br)cn1)C2 (centres undefined),-3,0.47
O=C(C1CCC1)N1CCC(NC(C2CCNCC2)[C@H]2C[C@H](O)C2)CC1 (some centres undefined),10,-1.69
Cc1cc(N2CCC(NCCc3c[nH]cn3)CC2)nc(-c2ccccc2)n1,32,-5.53
Clc1ccc(Oc2nc3ccccc3o2)c2ncccc12,7,-1.34
Nc1nc(NC2CC2)cc(N2CCC(NC(=O)c3ccccc3)C(O)C2)n1 (centres undefined),-16,2.68
CNc1nc(N[C@H]2C[C@@H](O)[C@@H]2n2cccn2)nc2ccccc12,-1,0.09
CC(C)c1cnn2c(NCc3ccccc3-n3cccn3)cc(O[C@H]3CCCNC3)nc12,1,-0.13
O=C(NC[C@H]1CCCN(c2ncnc3[nH]ccc23)C1)c1ccc2c(c1)CCCO2,-6,0.95
O=S(=O)(c1cccc2cnccc12)N1CCCN(c2ccc3nnc(-c4ccccc4)n3n2)CC1,-10,2.13
CCNS(=O)(=O)c1ccc2c(c1)N(C(=O)c1cnn(C(C)C)c1)CC2,-5,0.79
Cn1nc(-c2ccccc2)cc1C(=O)NCCN1CCN(C[C@H](O)COC(C)(C)C)CC1,1,-0.16
O=C(c1ccccc1N1CCOCC1)N1CCCn2nc(CO)cc2C1,3,-0.48
CN1CCC(N2CC[C@H](N(C)C(=O)c3nnc4ccccc4c3O)C2)CC1,-11,2.21
c1ccc2c(c1)CCCN2CCNc1nc(-c2ccncc2)nc2c1CNC2,-11,1.61
CN(C)C(=O)N1CC[C@H](N(CCN(C)C(=O)c2cccc3[nH]ccc23)C2CCOCC2)C1,-11,1.91
CC(=O)N1CCCC(C(=O)N2CCC(NC(=O)OC(C)(C)C)C(C)(C)C2)C1 (centres undefined),-2,0.38
CCCc1cc(C(=O)N2CCC[C@H]2C2CCOCC2)cc(=O)[nH]1,4,-0.82
Cc1ccc2c(C)cc(NC[C@H]3CCCN3C)nc2c1C,5,-1.05
Nc1nc2c(c(NCC[C@H]3COc4ccccc4O3)n1)CCNC2,3,-0.6
CC[C@H](NC(=O)c1ccc2oc(C)cc2c1)c1nc(C)c[nH]1,-5,0.72
Cc1ccc2ncccc2c1CNC(=O)CN1CCN(c2ncccn2)CC1,2,-0.26

SMILES,% Inhibition [%],Z score
Cn1ccnc(N2CCC[C@H](Nc3ncnc4cc(F)c(F)cc34)C2)c1=O,-9,1.61
N#Cc1ccc(N2CCC(NCCc3c[nH]cn3)CC2)nc1,-6,1.18
C[C@@]1(c2ccc(Br)cc2)COC(=O)N1,-2,0.47
c1ncn(Cc2ccc(NCc3ccc4[nH]ccc4c3)cc2)n1,-5,0.81
COc1ccc(-c2cccc3[nH]ccc23)nn1,20,-4.34
CN1C(=O)C(C)(C)COc2ccc(Nc3ncnc4[nH]ccc34)cc21,-3,0.61
CCc1[nH]c2ccc(CNc3ncc(F)c(N4CCOCC4)n3)cc2c1C,0,-0.01
CC[C@@H](c1nc(C)no1)n1cnc(-c2ccccc2)c1-c1cnn(C(C)C)c1,6,-0.95
Cn1cc(CN2CCC[C@H](COc3ccccc3C(=O)N3CCCCC3)C2)c2ccccc21,4,-0.72
C#CCOc1cc(F)ccc1NC(=O)N[C@@](C)(CO)C1CC1,-1,0.16
Nc1nc(NC[C@H]2CCN(c3ccc(Cl)cc3)C2)nc2ccccc12,5,-0.81
CN1CCN(c2nnnn2C[C@H]2CCOC2)Cc2cccnc21,-11,2.32
CC1(C)CC(NC2CNCCC2O)CC(C)(C)N1 (centres undefined),2,-0.53
O=C1C[C@H](CNc2ncnc3cc[nH]c23)CN1C1CCCC1,1,-0.23
Fc1ccc2c(c1)OCCC[C@@H]2NCCc1ccc2c[nH]nc2c1,-6,1.34
COc1cccc(OC)c1S(=O)(=O)NCCN1CCCC(C)(C)C1,-9,1.55
CN(CC[C@H]1CCOC1)Cc1ccc2ccccc2n1,10,-2.25
CC(C)c1ccc(C2(O)CCC(N[C@@H](C)c3ccc(-c4cncnc4)cc3)CC2)cc1 (some centres undefined),0,-0.02
Cc1cncc(-c2cnc3c(cnn3C3CCN(C)CC3)c2)c1,2,-0.36
O=C(CN1CCN(C(=O)Nc2ccc3[nH]ncc3c2)CC1)N1CCCC1,7,-1.28
COc1cc2nc(N3CCC(CN4CCN(C)CC4)CC3)cc(C)c2cc1OC,-2,0.44

SMILES,% Inhibition [%],Z score
CCC[C@H](C)c1cc(NS(=O)(=O)c2ccc(C(=O)OC)cc2)[nH]n1,-6,1.07
Cc1cc2nc(C(C)C)cc(NCCCN3CCC[C@H](O)C3)n2n1,-4,0.71
CCN(CC)C(=O)Cc1ccc(Nc2ncnc3[nH]ncc23)cc1,-2,0.39
Cc1ccc(-c2ccc3nnc(CNC(=O)c4cccc5[nH]ccc45)n3n2)cc1C,-1,0.19
Cc1ccccc1Nc1c(C(F)(F)F)c(C(F)(F)C(F)(F)F)nc2c(C)cccc12,-8,1.37
CN(CC1(O)CCCC1)S(=O)(=O)N1CCCCCC1,-1,0.17
O=S(=O)(c1ccccc1NCCc1nc(-c2ccncc2)cs1)C(F)(F)F,-9,1.58
Fc1ccc(-c2ncnc3[nH]ccc23)c(Cl)c1,9,-1.86
Cc1cnc(NC(=O)N2CC[C@H](CO)C2)nc1-c1ccccc1,-4,0.83
CN1CCC(N(C)C[C@H](Nc2ncnc3ccccc23)c2ccccc2)CC1,98,-17.15
C[C@H](Nc1nc(NC2CC2)nc2c1CCNCC2)c1nnc(N)s1,-4,0.64
Cn1c(-c2ccccc2)c([C@H](CN)c2ccccc2)c2ccccc21,-6,0.9
Cn1cncc1CN(CCO)C(=O)CCc1cccc(Cl)c1,-4,0.77
O=C(c1cccc2[nH]ccc12)N1CCC(C2OCCC2Nc2ncccn2)CC1 (centres undefined),-9,1.78
COc1cncc(N2CCN(CCN3CCC(C)CC3)CC2)n1,-9,1.54
c1ccc(COc2ccc(Nc3[nH]cnc4ncnc3-4)cc2)cc1,-1,0.2
COCCCn1ccc(Nc2nccc(Oc3ccc(F)cc3)n2)n1,-14,2.36
CC1(C)O[C@H]2C[C@H](NC(=O)c3cc[nH]c(=O)c3)C[C@H]2O1,-4,0.78
N#Cc1cnc(NC[C@H]2CCCN(C3CCCC3)C2)nc1N,1,-0.2
CC1=NC(Nc2nc(C)c3ccccc3n2)=NC(C)(C)C1,-10,1.72
C[C@@H](c1ccc(S(C)(=O)=O)cc1)N1CCC(Nc2ncnc3[nH]ccc23)CC1,-10,2.09

SMILES,% Inhibition [%],Z score
CN1CCCN(C(=O)CCC2CN(C3Cc4ccccc4C3)CCC2N2CCN(c3ccccc3F)CC2)CC1 (centres undefined),10,-1.74
Cc1cc(N2CCC[C@H](N3CCN(C(=O)c4ccccn4)CC3)C2=O)n(C)n1,-4,0.77
COc1cc(OC)nc(N2CCC(N3CCC[C@H](C(=O)N4CCCC4)C3)CC2)n1,-6,1.34
CC[C@H](O)c1cc2n(n1)CCN(C(=O)CCS(=O)(=O)c1ccccc1)C2,-4,0.62
Oc1cccc2c1CC[C@@H]2NCc1ccc(OC(F)F)c(F)c1,4,-0.65
CC(C)[C@H]1NC(=O)CCNc2cc(nc(NCc3cc(C4CC4)[nH]n3)n2)CCNC(=O)[C@H](C)NC1=O,-4,0.93
Cc1cc(Nc2nc3ccccc3s2)n(-c2ccccc2)n1,-2,0.29
CC[C@H]1CCCCN1C(=O)CS(=O)(=O)c1cn(Cc2cccc(F)c2)c2ccccc12,-12,1.83
CC(=O)N1CCC(CNC2CCC(C)(N3CCCC3)CC2)CC1 (centres undefined),-10,1.74
c1nc(N2CCC[C@H](Nc3ccc4c(c3)OCCO4)C2)c2cc[nH]c2n1,-9,1.85
O=C(c1ccnc2ccccc12)N1CCN(C2CCOCC2)CC1,-6,0.98
CCC1(NC(=O)c2cc(C)c3ccccc3n2)CCOCC1,21,-4.08
O=S(=O)(c1ccccc1NC1CCN(Cc2ccccc2)CC1)C(F)(F)F,-6,1.29
Cn1cc(C(=O)NC2CCC(N3CCNCC3)CC2)c([C@H]2CCCNC2)n1 (some centres undefined),-11,1.63
COC[C@H]1CC[C@H]1NC(=O)c1c(C)ccc(Br)c1OC,-5,0.97
O=C(c1cc(-c2ccccn2)no1)N1CC2C3CCC(C3)C2C1 (centres undefined),-4,0.8
OC[C@H](CNc1cc(-c2ccccc2)nc2ccnn12)Cc1ccsc1,-1,0.11
O=C(Cn1cc(-c2ccc(F)cc2)cn1)N1C2CCC1CC(Oc1ccncc1)C2 (centres undefined),2,-0.32
O[C@H]1CCCN(CCCn2cnc(-c3ccccc3)c2-c2cc(F)cc(F)c2)C1,-1,0.11
